Reference: PubChem BioAssay (Tox21)
Values joined by “and” are separate entries in the source; they are usually repeats but may differ in a detail not shown here. Equal entries are not always repeated. The inconclusive results got no clear call from the source; some entries with a clear call stand among them for comparison. For some of these results: Potencies beside an inconclusive call are fits to weak or partial responses and may not hold up. A structure can be active in one record and inactive in another. Active and inactive are the calls of the source. Unless noted, the call rests on the fitted dose curve; in most records, active means well fitted curve in the direction sought with a large enough effect in the repeat runs; inconclusive means weak or mixed curves; inactive means no such curve, though single readings can be large; an effect the other way counts as inactive or inconclusive.

Legend:
[1] = biological target: Peroxisome proliferator-activated receptor delta (Homo sapiens) (UniProt Q03181); assay: qHTS assay to identify small molecule agonists of the peroxisome proliferator-activated receptor delta (PPARd) signaling pathway (AID 743212; calls by dose curve;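 further: HEK293H cells with PPARd UAS beta-lactamase reporter GeneBLAzer system; on the % scale 0 is the no-effect control and ±100 the full control effect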); conditions: HEK293H PPARd-UAS-bla, beta-lactamase FRET ratio, 17 h; activation: at 62.6 µM (top of the series) unless noted
Procedure, shortened: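 Beta-lactamase reporter readout: a ratiometric FRET signal from the LiveBLAzer substrate after 2 h at room temperature. Compound exposure at 37 °C in PPARδ-bla HEK293H cells driven by an upstream activator sequence.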

[2] = qHTS assay to identify small molecule antagonists of the estrogen related receptor (ERR) signaling pathway from Tox21 library (AID 1224848); conditions: ERR reporter cell line, luciferase antagonist mode, 18 h; series mostly up to 92.4 µM; further: nearly all actives have a fitted effect of over 50% in size; further: potency means the concentration at half of the fitted maximal effect
Procedure, shortened: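 Luciferase luminescence (ONE-Glo, 30 min room temperature) was the read-out. Cells of the NTP-supplied ERR line, 2,000 per well, were given 6 h at 37 C before compound addition in DMSO and 18 h exposure at 37 C.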

[3] = qHTS assay for small molecule activators of the heat shock response signaling pathway - cell viability counter screen (AID 743209); conditions: HSE-bla HeLa viability, CellTiter-Glo luminescence, 5 h; activity change, negative = cytotoxicity: at 62.6 µM (top of the series); further: nearly all actives have a fitted effect of over 50% in size; further: potency means the concentration at half of the fitted maximal effect; on activity change, negative = cytotoxicity: on the % scale 0 is the no-effect control and ±100 the full control effect
Procedure, shortened: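 To flag cytotoxic compounds, HSE-bla HeLa cells plated at 1500 cells/well were dosed for 5 h at 37 C, followed by the reporter FRET read and then CellTiter-Glo, with luminescence recorded 30 min after reagent addition.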

[4] = biological target: Nuclear receptor subfamily 1 group I member 3 (Homo sapiens) (UniProt Q14994); assay: qHTS assay to identify small molecule antagonists of the constitutive androstane receptor (CAR) signaling pathway (AID 1224838); conditions: HepG2-CYP2B6-hCAR luciferase, CITCO-stimulated, 24 h; series mostly up to 92.4 µM;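 further: HepG2 cells stably expressing hCAR with CYP2B6 luciferase reporter stimulated by CITCO; potency means the concentration at half of the fitted maximal effect; nearly all actives have a fitted effect of over 40% in size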
Procedure, shortened: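 Human hepatoma HepG2 cells expressing hCAR and a CYP2B6 promoter (2.2 kb) luciferase construct; compound titration (15 points) with 50 nM CITCO final, 24 h at 37 C/5% CO2; luminescence via ONE-Glo after 30 min at room temperature.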

[5] = qHTS RealTime-Glo MT Cell Viability Assay in HEK293 cells - 40 hour (AID 1224874); conditions: RealTime-Glo luminescence; max response: stronger effect = lower value; further: nearly all actives have a fitted effect of over 50% in size; further: potency means the concentration at half of the fitted maximal effect; on max response: on the % scale 0 is the no-effect control and ±100 the full control effect
Procedure, shortened: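 HEK293 + NanoLuc + prosubstrate, 600 cells/well; 5 h, 37 C/5% CO2; compound 23 nL in DMSO by pintool; 37 C; luminescence read at 0, 8, 16, 24, 32 and 40 h time points.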

[6] = qHTS assay to identify small molecule agonists of the TGF-beta/Smad signaling pathway (AID 1346859; active means well fitted activation curve with a large enough effect in the signal ratio in the repeat runs, not every such curve was filed as active; inconclusive means weak or mixed curves; the % refers to the signal ratio; further: potency means the concentration at half of the fitted maximal effect); conditions: SBE-bla HEK293T, TGF-beta/Smad beta-lactamase reporter, 5 h; series mostly up to 76.8 µM
Procedure, shortened: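 Each well held 4,000 SBE-bla HEK 293T cells incubated overnight before compound addition; 5 hr later the cleavable FRET substrate went on for 2 hr at room temperature, and fluorescence was read at two emissions.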

[7] = qHTS assay to identify small molecule antagonists of the retinoic acid receptor (RAR) signaling pathway (AID 1159552; further: nearly all actives have a fitted effect of over 50% in size; further: potency means the concentration at half of the fitted maximal effect); conditions: C3RL4 RARE luciferase reporter, retinol-stimulated, 6 h; series mostly up to 92.4 µM
Procedure, shortened: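 C3RL4 RARE-luc cells, overnight plating; retinol 1 uM final added right after compound; 6 hr 37 C; luciferase read at 30 min RT.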

[8] = A CellTox Green Cytotoxicity Assay to monitor cytotoxicity in HepG2 cells - 24 hour (AID 1224878); conditions: CellTox Green fluorescence; series mostly up to 76.8 µM; further: potency means the concentration at half of the fitted maximal effect; nearly all actives have a fitted effect of over 45% in size
Procedure, shortened: (§1)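 Measurements at 0, 8, 16, 24, 32 and 40 h of treatment captured CellTox Green fluorescence in HepG2 cells that had been co-plated with reagent and preincubated 5 h at 37 C/5% CO2.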

[9] = A CellTox Green Cytotoxicity Assay to monitor cytotoxicity in HEK293 cells - 32 hour (AID 1224881); conditions: CellTox Green fluorescence; series mostly up to 76.8 µM; further: potency means the concentration at half of the fitted maximal effect; nearly all actives have a fitted effect of over 40% in size
Procedure, shortened: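 Tox21 screen in HEK293: membrane-impermeant cyanine dye fluoresces on binding dead-cell DNA; compound pinned 5 h post-seeding, plates held at 37 C, signal read repeatedly through 40 h.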

[10] = A CellTox Green Cytotoxicity Assay to monitor cytotoxicity in HepG2 cells - 32 hour (AID 1224883); conditions: CellTox Green fluorescence; series mostly up to 76.8 µM; further: nearly all actives have a fitted effect of over 50% in size; further: potency means the concentration at half of the fitted maximal effect
Procedure, shortened: as §1

[11] = biological target: Voltage-gated inwardly rectifying potassium channel KCNH2 (Homo sapiens) (UniProt Q12809); assay: Human Ether-a-go-go-Related Gene (hERG) channel small molecule antagonists: fluorescence cell-based qHTS assay (AID 1671200); conditions: hERG-U2OS cells, FluxOR thallium flux fluorescence; series mostly up to 76.8 µM; further: nearly all actives have a fitted effect of over 50% in size; further: potency means the concentration at half of the fitted maximal effect
Procedure, shortened: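 Kinetic two-minute fluorescence traces, sampled at 1 s, were collected following thallium stimulus of U2OS cells (1000 per well) that had been cultured overnight at 37 C and loaded with FluxOR II.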

[12] = biological target: Estrogen receptor (Homo sapiens) (UniProt P03372); assay: qHTS assay to identify small molecule antagonists of the estrogen receptor alpha (ER-alpha) signaling pathway (AID 743069; active means well fitted curve in the direction sought with a large enough effect in the signal ratio in the repeat runs, not every such curve was filed as active; inconclusive means weak or mixed curves, or effect the other way; inactive means no such curve, though single readings can be large or run the other way; the % refers to the signal ratio; further: on the % scale 0 is the no-effect control and ±100 the full control effect); conditions: HEK293 ER-alpha-UAS-bla, beta-lactamase ratio, antagonist mode
Procedure, shortened: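 Antagonist mode: compounds in DMSO were co-added with 17beta-estradiol to ER-alpha-bla HEK293 cells (2% charcoal-stripped serum) and left 18 h at 37C. Reporter inhibition was measured as FRET fluorescence after 2 h LiveBLAzer substrate at room temperature.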

[13] = qHTS assay to identify small molecule agonists of the constitutive androstane receptor (CAR) signaling pathway - cell viability counter screen (AID 1224836); conditions: HepG2-CYP2B6-hCAR viability, CellTiter-Fluor, 23 h, PK11195 added to every well; series mostly up to 92.4 µM; further: nearly all actives have a fitted effect of over 45% in size; further: potency means the concentration at half of the fitted maximal effect
Procedure, shortened: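 Using CellTiter-Fluor, viability of HepG2 cells harbouring hCAR and CYP2B6-2.2kb was measured following 23 h incubation with a 15-concentration compound series plus PK11195 (0.75 uM final).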

[14] = qHTS assay to identify small molecule antagonists of the constitutive androstane receptor (CAR) signaling pathway - cell viability counter screen (AID 1224837); conditions: HepG2-CYP2B6-hCAR viability, CellTiter-Fluor, 23 h, co-treated with 50 nM CITCO; series mostly up to 92.4 µM; further: nearly all actives have a fitted effect of over 45% in size; further: potency means the concentration at half of the fitted maximal effect
Procedure, shortened: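 To flag cytotoxic false antagonists, HepG2 hCAR/CYP2B6-2.2kb cells were treated 23 hr with 15-concentration compound series and 50 nM CITCO at 37 C/5% CO2; CellTiter-Fluor fluorescence was the measured end point.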

[15] = qHTS assay to identify small molecule agonists of the estrogen receptor alpha (ER-alpha) signaling pathway in the presence of an antagonist - cell viability counter screen (AID 1259386); conditions: VM7Luc4E2 viability, CellTiter-Fluor fluorescence, 22 h; series mostly up to 92.4 µM;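 further: potency means the concentration at half of the fitted maximal effect; cells exposed to compounds for 22 h at 37 °C before the viability read; nearly all actives have a fitted effect of over 30% in size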
Procedure, shortened: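 The test measures whether compounds kill ER-alpha reporter cells (VM7Luc4E2) under antagonist co-treatment (ICI-182,780, 10.0nM). Fluorescence from CellTiter-Fluor is read after a 22hr exposure.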

[16] = qHTS assay to identify small molecule antagonists of the androgen receptor (AR) signaling pathway - cell viability counter screen (AID 743033; further: nearly all actives have a fitted effect of over 45% in size; further: potency means the concentration at half of the fitted maximal effect); conditions: AR-bla HEK293 viability, CellTiter-Glo luminescence, 16 h; series mostly up to 58.5 µM
[17] = qHTS assay to identify small molecule antagonists of the thyroid receptor (TR) signaling pathway (AID 743065); conditions: GH3.TRE-Luc, T3-stimulated luciferase inhibition, 23.5 h; series mostly up to 70.3 µM; further: potency means the concentration at half of the fitted maximal effect; nearly all actives have a fitted effect of over 55% in size
Procedure, shortened: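 Antagonism measured as loss of luciferase signal in GH3 cells stably carrying a TRE-luciferase reporter, co-treated with compound and T3 (1 nM final) for 23.5 h at 37 C. Viability was read in the same well by CellTiter-Fluor.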

[18] = biological target: Acetylcholinesterase (Homo sapiens) (UniProt P22303); assay: Acetylcholinesterase (AChE) small molecule antagonists: fluorescence cell-based qHTS assay (AID 1347398; calls by dose curve); conditions: SH-SY5Y cells; Potency: AChE activity; series mostly up to 115 µM
Procedure, shortened: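 Cellular AChE activity read as thiocholine from acetylthiocholine hydrolysis, detected by Thiolite Green fluorescence at 490/520 nm after 40 min at room temperature. Compounds were pre-incubated 30 min at 37 C on adherent SH-SY5Y cells.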

[19] = biological target: Cytochrome P450 3A4 (Homo sapiens) (UniProt P08684); assay: Cytochrome P450 Family 3 Subfamily A Member 4 (CYP3A4) small molecule antagonists: luciferase reporter qHTS assay (AID 1671201); conditions: P450-Glo CYP3A4 enzyme, luciferin luminescence, 1 h; series mostly up to 115 µM
Procedure, shortened: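 Proluciferin-to-luciferin conversion by CYP3A4, NADPH-regenerated, 1 h RT; luminescence read as RLU. Ketoconazole as control.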
Tags describe the fitted curve by direction and shape or compound fluorescence and quenching.

UniProt Q03181, sequence (Q03181 whole entry, looked up): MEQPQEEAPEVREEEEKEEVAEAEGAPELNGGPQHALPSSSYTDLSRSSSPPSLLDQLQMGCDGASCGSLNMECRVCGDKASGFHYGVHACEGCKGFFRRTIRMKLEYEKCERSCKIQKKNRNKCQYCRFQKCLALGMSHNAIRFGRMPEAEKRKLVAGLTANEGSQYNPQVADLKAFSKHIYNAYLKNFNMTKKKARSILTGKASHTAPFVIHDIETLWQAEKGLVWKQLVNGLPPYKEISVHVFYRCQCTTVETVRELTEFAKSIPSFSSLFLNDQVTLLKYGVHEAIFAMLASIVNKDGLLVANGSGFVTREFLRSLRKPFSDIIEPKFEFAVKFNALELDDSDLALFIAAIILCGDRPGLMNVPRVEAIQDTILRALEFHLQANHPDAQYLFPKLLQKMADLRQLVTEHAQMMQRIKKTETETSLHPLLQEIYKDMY
UniProt Q12809, sequence (Q12809 whole entry, looked up): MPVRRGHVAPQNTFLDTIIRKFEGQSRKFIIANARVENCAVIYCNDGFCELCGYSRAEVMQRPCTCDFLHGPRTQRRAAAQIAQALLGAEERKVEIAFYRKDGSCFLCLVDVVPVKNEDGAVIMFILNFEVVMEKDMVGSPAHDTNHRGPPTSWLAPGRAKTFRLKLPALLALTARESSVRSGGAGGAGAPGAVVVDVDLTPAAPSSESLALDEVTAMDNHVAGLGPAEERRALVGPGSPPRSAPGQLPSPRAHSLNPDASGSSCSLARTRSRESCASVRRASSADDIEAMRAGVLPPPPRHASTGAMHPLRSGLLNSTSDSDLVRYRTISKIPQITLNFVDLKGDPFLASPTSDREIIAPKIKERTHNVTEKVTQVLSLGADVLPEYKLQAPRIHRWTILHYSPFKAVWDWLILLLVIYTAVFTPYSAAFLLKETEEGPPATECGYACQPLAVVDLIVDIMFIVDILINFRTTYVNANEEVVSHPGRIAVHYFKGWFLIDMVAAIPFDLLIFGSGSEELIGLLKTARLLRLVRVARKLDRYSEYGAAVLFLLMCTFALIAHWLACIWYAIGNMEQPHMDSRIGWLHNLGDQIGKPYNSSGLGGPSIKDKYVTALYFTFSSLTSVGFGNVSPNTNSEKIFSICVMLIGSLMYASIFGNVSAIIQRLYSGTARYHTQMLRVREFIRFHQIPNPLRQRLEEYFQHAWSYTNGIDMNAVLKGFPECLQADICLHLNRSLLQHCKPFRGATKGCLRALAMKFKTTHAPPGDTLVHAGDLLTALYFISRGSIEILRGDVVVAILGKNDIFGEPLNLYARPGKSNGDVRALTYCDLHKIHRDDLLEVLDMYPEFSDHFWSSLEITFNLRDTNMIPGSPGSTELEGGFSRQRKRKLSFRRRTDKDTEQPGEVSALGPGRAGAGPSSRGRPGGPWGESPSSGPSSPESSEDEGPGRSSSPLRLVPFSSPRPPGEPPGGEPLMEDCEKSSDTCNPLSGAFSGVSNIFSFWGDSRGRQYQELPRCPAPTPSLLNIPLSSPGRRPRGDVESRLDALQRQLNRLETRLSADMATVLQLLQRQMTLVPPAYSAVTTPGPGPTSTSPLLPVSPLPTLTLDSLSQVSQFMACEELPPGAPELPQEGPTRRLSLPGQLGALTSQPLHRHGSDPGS
UniProt P03372, sequence (P03372 whole entry, looked up): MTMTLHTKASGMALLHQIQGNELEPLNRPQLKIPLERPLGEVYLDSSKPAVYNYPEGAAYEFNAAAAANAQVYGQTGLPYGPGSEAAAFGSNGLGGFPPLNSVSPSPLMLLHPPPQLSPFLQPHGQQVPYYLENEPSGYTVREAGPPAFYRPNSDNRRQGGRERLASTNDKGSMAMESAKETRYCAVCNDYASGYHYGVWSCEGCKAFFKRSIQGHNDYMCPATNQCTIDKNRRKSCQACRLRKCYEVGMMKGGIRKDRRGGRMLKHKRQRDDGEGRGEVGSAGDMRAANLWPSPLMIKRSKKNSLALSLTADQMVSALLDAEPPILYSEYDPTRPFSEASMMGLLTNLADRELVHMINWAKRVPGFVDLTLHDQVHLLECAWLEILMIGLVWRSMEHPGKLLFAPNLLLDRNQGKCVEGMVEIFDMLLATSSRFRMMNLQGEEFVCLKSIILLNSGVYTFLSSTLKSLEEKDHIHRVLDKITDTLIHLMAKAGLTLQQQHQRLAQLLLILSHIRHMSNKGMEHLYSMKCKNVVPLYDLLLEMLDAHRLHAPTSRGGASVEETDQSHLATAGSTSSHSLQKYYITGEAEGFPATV
UniProt P22303, sequence (P22303 whole entry, looked up): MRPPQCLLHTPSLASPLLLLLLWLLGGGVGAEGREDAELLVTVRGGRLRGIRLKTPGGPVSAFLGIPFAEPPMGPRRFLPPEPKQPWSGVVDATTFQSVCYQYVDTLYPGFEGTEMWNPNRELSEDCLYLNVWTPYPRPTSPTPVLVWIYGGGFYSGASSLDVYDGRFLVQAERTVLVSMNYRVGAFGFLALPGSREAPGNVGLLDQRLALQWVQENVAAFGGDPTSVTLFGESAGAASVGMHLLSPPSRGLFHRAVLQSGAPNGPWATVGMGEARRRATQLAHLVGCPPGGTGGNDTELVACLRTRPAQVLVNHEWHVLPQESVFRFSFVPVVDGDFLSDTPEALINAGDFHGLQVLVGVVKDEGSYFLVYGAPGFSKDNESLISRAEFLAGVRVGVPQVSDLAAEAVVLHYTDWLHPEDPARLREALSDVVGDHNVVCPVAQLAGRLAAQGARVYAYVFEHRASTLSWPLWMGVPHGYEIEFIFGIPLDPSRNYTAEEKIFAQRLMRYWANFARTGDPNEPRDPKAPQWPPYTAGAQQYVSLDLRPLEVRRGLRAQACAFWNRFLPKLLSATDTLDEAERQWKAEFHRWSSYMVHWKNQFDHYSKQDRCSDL
UniProt P08684, sequence (P08684 whole entry, looked up): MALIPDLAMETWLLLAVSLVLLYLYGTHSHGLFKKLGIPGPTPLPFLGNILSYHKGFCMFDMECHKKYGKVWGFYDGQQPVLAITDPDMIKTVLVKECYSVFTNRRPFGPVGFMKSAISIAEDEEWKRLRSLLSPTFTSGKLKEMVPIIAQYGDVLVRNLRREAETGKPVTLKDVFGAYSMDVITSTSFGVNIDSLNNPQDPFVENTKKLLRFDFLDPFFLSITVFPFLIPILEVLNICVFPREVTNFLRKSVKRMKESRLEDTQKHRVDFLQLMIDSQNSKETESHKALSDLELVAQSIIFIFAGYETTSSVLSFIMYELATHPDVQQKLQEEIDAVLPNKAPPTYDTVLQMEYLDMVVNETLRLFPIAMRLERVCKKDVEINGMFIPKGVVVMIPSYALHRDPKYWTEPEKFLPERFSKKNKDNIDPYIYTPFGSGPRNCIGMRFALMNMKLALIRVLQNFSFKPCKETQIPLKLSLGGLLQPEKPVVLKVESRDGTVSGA
UniProt Q14994, sequence (Q14994 whole entry, looked up): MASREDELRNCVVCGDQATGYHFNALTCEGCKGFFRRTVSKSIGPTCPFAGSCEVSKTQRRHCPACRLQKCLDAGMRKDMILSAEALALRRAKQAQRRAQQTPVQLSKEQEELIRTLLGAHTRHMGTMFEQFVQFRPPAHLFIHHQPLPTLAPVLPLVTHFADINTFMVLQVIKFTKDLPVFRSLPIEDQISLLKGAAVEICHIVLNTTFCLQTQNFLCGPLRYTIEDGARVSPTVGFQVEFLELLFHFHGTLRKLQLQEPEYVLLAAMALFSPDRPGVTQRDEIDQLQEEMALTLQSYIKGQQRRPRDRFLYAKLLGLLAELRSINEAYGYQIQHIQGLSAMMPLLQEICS

## Nc1ccc(Oc2ccc(N)cc2)cc1
[1]
  activation: inconclusive: 6.44% [at 81.1 µM]
[2]
  Potency: inconclusive: 61.1 µM [inhibitor, single point]

## CCOC(=O)NC(O)C(Cl)(Cl)Cl (stereo not drawn)
[3]
  Potency: inconclusive: 33.5 nM [cytotoxic, full curve, poor fit]
[4]
  Potency: inconclusive: 10.6 µM [inhibitor, partial curve, poor fit]

## COC(=O)COc1ccc(Cl)cc1Cl
[5]
  max response: inactive: 0.13%
[6]
  Potency: inconclusive: 30.9 µM [rising, partial curve]

## ClC(Cl)=C(c1ccc(Cl)cc1)c1ccccc1Cl
[7]
  Potency: inconclusive: 30.6 µM [inhibitor, partial curve, poor fit]
[5]
  Potency: inconclusive: 61.6 µM [cytotoxic, partial curve, poor fit]
[8]
  Potency: inconclusive: 61.6 µM [activator, single point]
[9]
  Potency: inconclusive: 61.6 µM [activator, single point]
[10]
  Potency: inconclusive: 61.6 µM [activator, single point]
[6]
  Potency: inconclusive: 54.9 µM [rising, partial curve, poor fit]
[11]
  Potency: active: 21.9 µM

## Cc1ccc(O)c(C)c1
[12]; activity, negative = inhibition: at 69.4 µM (top of the series) unless noted
  activity, negative = inhibition: inconclusive: 36% [at 79.1 µM]
[12]; at 69.4 µM (top of the series)
  activity, negative = inhibition: inactive: 19.9%

## N#Cc1c(-c2ccc(Cl)cc2)[nH]c(C(F)(F)F)c1Br
[7]
  Potency: active: 0.545 µM
[13]
  Potency: inconclusive: 15.4 µM [cytotoxic, full curve]
[14]
  Potency: active: 1.22 µM
[8]
  Potency: inconclusive: 9.77 µM [activator, partial curve, poor fit]
[10]
  Potency: inconclusive: 8.71 µM [activator, full curve, poor fit]
[15]
  Potency: inconclusive: 2.73 µM [cytotoxic, full curve]
[6]
  Potency: inconclusive: 3.89 µM [rising, full curve]
[11]
  Potency: inconclusive: 9.77 µM [inhibitor, partial curve]

## CSc1nc(N=[N+]=[N-])nc(NC(C)C)n1
[3]
  Potency: inactive
[5]
  Potency: inconclusive: 43.6 µM [cytotoxic, partial curve, poor fit]

## CCCCCCCCCCCC(=O)O
[16]
  Potency: inconclusive: 79.3 µM [cytotoxic, partial curve, poor fit]
[3]
  Potency: inconclusive: 61.8 µM [cytotoxic, single point] and inconclusive: 79.3 µM [cytotoxic, single point]
[8]
  Potency: inconclusive: 21.9 µM [activator, single point]
[10]
  Potency: inconclusive: 21.9 µM [activator, single point]
[11]
  Potency: inactive

## Nc1cc(Cl)ccc1O
[17]
  Potency: active: 59.1 µM
[7]
  Potency: inconclusive: 2.64 µM [inhibitor, partial curve, poor fit]
[15]
  Potency: inconclusive: 52.7 µM [cytotoxic, partial curve, poor fit]
[6]
  Potency: inactive

## O=S(=O)(c1ccc(O)cc1)c1ccc(O)cc1
[5]
  Potency: inconclusive: 55.3 µM [cytotoxic, partial curve, poor fit]
[18]
  Potency: inconclusive: 80.2 µM [inhibitor, partial curve, poor fit]

## CN(C)CCc1ccc(O)cc1
[16]
  Potency: inconclusive: 0.0067 µM [cytotoxic, full curve, poor fit]

## Cc1c(F)c(F)c(COC(=O)C2C(/C=C(\Cl)C(F)(F)F)C2(C)C)c(F)c1F (stereo not drawn)
[17]
  Potency: inconclusive: 54.5 µM [inhibitor, partial curve]
[1]
  activation: inconclusive: 0.47%
[7]
  Potency: inconclusive: 10.9 µM [inhibitor, full curve, poor fit]
[11]
  Potency: inconclusive: 11 µM [inhibitor, full curve, poor fit]

## CCN1CCCC1CNC(=O)C(O)(c1ccccc1)c1ccccc1 (stereo not drawn)
[13]
  Potency: inactive
[11]
  Potency: inconclusive: 19 µM [inhibitor, partial curve]

## CC(C)CCON=O
[9]
  Potency: inconclusive: 0.239 µM [activator, partial curve]

## CC(C)OC(=O)Nc1cccc(Cl)c1
[9]
  Potency: inconclusive: 54.9 µM [activator, single point]

## COc1cccc([C@@]2(O)CCCC[C@@H]2CN(C)C)c1
[7]
  Potency: inactive

## COS(=O)(=O)OC
[16]
  Potency: inconclusive: 21.9 µM [cytotoxic, partial curve, poor fit]
[1]
  Potency: inactive

## CCOP(=S)(OCC)SCSP(=S)(OCC)OCC
[16]
  Potency: inactive
[17]
  Potency: inconclusive: 54.5 µM [inhibitor, partial curve]

## CC[N+]1(C)CCCC(OC(=O)C(O)(c2ccccc2)c2ccccc2)C1 (stereo not drawn)
[3]
  Potency: inactive
[2]
  Potency: inactive

## COC(=O)Cc1ccccc1
[14]
  Potency: inactive

## COc1ccc(N)cc1
[17]
  Potency: inconclusive: 67.4 µM [inhibitor, single point] and inconclusive: 60.6 µM [inhibitor, partial curve, poor fit] and inconclusive: 61.1 µM [inhibitor, single point]
[9]
  Potency: inconclusive: 21.9 µM [activator, single point]
[10]
  Potency: inactive and active: 245 nM
[19]
  Potency: inconclusive: 31.4 µM [inhibitor]

## CC(C)(O)C#N
[6]
  Potency: inactive
